# According to the supplement of paper PMC10986608:
# Some of the results follow. Single values are uncertain, as repeats are few or missing.
# Tested on: Candida albicans DPL-15
# Experiment: growth (OD600) after compound treatment (apparently relative to screen median) (relative growth (fraction; screen median 1.02)); DPL-15 is a caspofungin-resistant clinical isolate; higher = more fungal growth (less antifungal activity)
# Conditions: 25 µM; RPMI 1640; 48 h; 30 °C
row,SMILES,growth
1,COC(=O)[C@@H]1[C@@H](c2ccccc2)[C@]2(c3ccc(OC)cc3)Oc3cc(OC)cc(OC)c3[C@@]23N=C(c2ccccc2)N[C@@]13O,0.86
2,Cc1ccc(S(=O)(=O)N/N=C/c2cccc(C(=O)O)c2)cc1,1.16
3,O=C(O)c1cccc2c(=O)c3cccc(OCc4ccccc4)c3[nH]c12,0.971
4,CCCCCOS(=O)(=O)NCC(F)(F)F,1.06
5,CC1(C)C/C2=C/c3cccc(n3)C(=O)N3C[C@H](O)C[C@H]3C(=O)N(C2)C1,0.989
6,CO[C@@H]1[C@H](O)CC[C@]2(O)CN(CCc3cccs3)[C@@H](CC=C(C)C)[C@](C)(O)[C@@H]12,0.953
7,COC(=O)C1=C(C)N(Cc2ccc(C(F)(F)F)cc2)C(NCc2ccc(C(F)(F)F)cc2)=NC1c1ccc(Cl)cc1 (stereo not given),0.876
8,COC(=O)[C@@H]1[C@H](C(=O)OC)[C@@H](c2ccccc2)[C@H]1c1ccccc1,1.02
9,COC(=O)C(C(=O)OC)C(NC(=O)OCc1ccccc1)c1ccccc1 (stereo not given),1.21
10,Cc1ccc(S(=O)(=O)N2CCC3(C)C(=C(C#Cc4ccccn4)c4ccccc43)C2)cc1 (stereo not given),1.18
11,C#CCn1nc2c(c1CC(C)C)C(c1ccc(F)cc1)N(c1ccc(OC)cc1)C2=O (stereo not given),0.995
12,CCCCCCNS(=O)(=O)N(CC)C(=O)OC(C)(C)C,1.12
13,COC(=O)C1=C(C)N(Cc2ccccc2)C(NCc2ccc(OC)cc2)=NC1c1ccccc1 (stereo not given),1.02
14,CCOCCOCCN(OC)C(=O)[C@H]1[C@@H](O)[C@@]2(O)c3c(OC)cc(OC)cc3O[C@@]2(c2ccc(OC)cc2)[C@@H]1c1ccccc1,0.957
15,COc1ccc(Cn2nc(C(C)C)cc2Nc2cc(O)cc(O)c2C(=O)N2Cc3cn[nH]c3C2)cc1,1.11
16,COC[C@H]1O[C@H](c2ccccc2)C=C[C@@H]1OCC#Cc1ccccc1N,0.848
17,COCc1n[nH]c2c1C(c1ccc(F)cc1)N(c1ccc(OC)cc1)C2=O (stereo not given),1.16
18,COc1ccc(Cc2cc(C)c(O)c(C)c2OC)c(O)c1C,0.872
19,COc1ccc(-c2nc3cc(-c4ccc(F)cc4)ccc3n2C)cc1,0.984
20,C=CCN1C(=O)C2=C(C(C(C)C)=NCCN2C)C1c1ccc(C)cc1 (stereo not given),0.988
21,COC(=O)c1[nH]c2ccccc2c1[C@]12CCN(C(=O)C3CCCO3)[C@H]1Nc1ccccc12 (stereo not given in full),0.917
22,C=C(C)[C@@H]1CC2=C(OC)C(CC=C(C)C)(CC=C(C)C)C(=O)C(C(=O)c3ccccc3)=C2O1,1.28
23,COc1ccc(-c2ccc3c(n2)CCCN3S(=O)(=O)c2ccccc2C)cc1,0.914
24,CCCC[C@H]1Cc2ccc(F)cc2[C@H]2[C@H]3C(=O)N(c4ccc(OC)cc4)C(=O)[C@H]3[C@H](C(=O)OC)N12,0.8
25,CN1C(=O)[C@@]2(O[C@H]3C=CC=CN3C3=C2C(=O)CCC3)c2cc([N+](=O)[O-])ccc21,1.02
26,Cc1ccc(S(=O)(=O)n2cccc2[C@H]2[C@@H](C)C[C@H]3CC(=O)N[C@@H](Cc4c[nH]c5ccccc45)C(=O)N32)cc1,1.12
27,COC(=O)c1c(-c2ccc(OC)c(OC)c2)oc(-c2ccc3c(c2)OCO3)c1C(=O)OC,1.21

row,SMILES,growth
1,COC(=O)c1nnc(C(=O)OC)c2c1[nH]c1ccc(C#N)cc12,1.2
2,COc1ccc(CC2(c3ccccc3)Oc3ccccc3-c3nc4ccccc4nc32)cc1 (stereo not given),1.07
3,C[C@@H]1c2c([nH]c(-c3ccccc3)c2C(=O)NCCc2c[nH]c3ccccc23)C(=O)C[C@H]1c1ccccc1,0.889
4,CN(C)S(=O)(=O)Nc1ccc(C(F)(F)F)cc1,0.999
5,CC(C)c1nn(-c2ccc(F)cc2)c2c1C(c1ccc(F)cc1)NC2=O (stereo not given),1.04
6,CO[C@@H]1[C@H](O)CC[C@]2(O)CN(c3ccc(C(C)=O)cc3)[C@@H](CC=C(C)C)[C@](C)(O)[C@@H]12,1.1
7,COC[C@@H](O)[C@H]1OCc2c(c3cc(F)ccc3n2S(C)(=O)=O)[C@@H]1/C=C/c1ccccc1,0.951
8,Cc1cc(Nc2cc(O)cc(O)c2C(=O)N2CC[C@@H](N(C)C)C2)n(C)n1,1.08
9,CC1=C(C(=O)OC(C)C)[C@@H](c2ccccc2)c2cc(C)ccc2O1,1.08
10,COc1ccc([C@H]2c3cc(OC)c(OC)cc3O[C@H]3c4ccccc4C[C@@H]23)cc1,0.93
11,COC(=O)[C@@]12Oc3cccc(O)c3C(=O)[C@@]1(Cl)C(=O)CC[C@H]2O,1.35
12,CC#CCN1C(=O)NC(c2ccccc2)C(C(=O)NCc2ccccc2)=C1C (stereo not given),1.11
13,COC(=O)C1=C(C)N(CC(C)C)C(=S)NC1c1ccc(OC)cc1 (stereo not given),0.957
14,CN1CCN=C(c2ccccc2)C2=C1C(=O)N(Cc1ccccc1)C2c1ccc(Br)cc1 (stereo not given),0.933
15,C#CCCC(=O)NCc1ccc(O)c(OC)c1,1.12
16,O=c1c(O)c(-c2ccc(Br)cc2)n(CC2CC2)c2cccc(F)c12,0.561
17,CCN(CC)CCCNC1=N[C@@H](c2cccc(F)c2)C(C(=O)OC)=C(C)N1Cc1ccccc1,1.07
18,Cc1ccc(C2C3=C(NCCN=C3C(C)C)C(=O)N2c2ccccc2)cc1 (stereo not given),1.03
19,COc1ccc([C@@]23Oc4cc(OC)cc(OC)c4[C@]2(O)c2nc(C)[nH]c(=O)c2[C@H]3c2ccccc2)cc1,1.1
20,CC(C)(C)NS(=O)(=O)OC[C@H]1O[C@@H](n2cnc3c(N(C(=O)OC(C)(C)C)C(=O)OC(C)(C)C)ncnc32)[C@@H]2OC(C)(C)O[C@@H]21,0.831
21,COc1ccc([C@@]23Oc4cc(OC)cc(OC)c4[C@]2(O)c2nc(N4CCOCC4)[nH]c(=O)c2[C@H]3c2ccccc2)cc1,0.897
22,COc1cc2c(cc1OC)CN(CCc1ccc(NC(=O)COc3ccccc3[N+](=O)[O-])cc1)CC2,1.12
23,COC(=O)C1=C(C)N(Cc2ccccc2)C(=S)NC1c1ccccc1F (stereo not given),0.877
24,O=Cc1c(O)c(C=O)c(O)c(C(c2ccccc2)N2CCCC2)c1O (stereo not given),0.954
25,CC(=O)Oc1cc(OC(C)=O)c2c(=O)c3c(CC=C(C)C)cc(OC(C)=O)c(OC(C)=O)c3oc2c1,0.991
26,COc1ccc(COc2c(-c3ccccc3)oc3ccccc3c2=O)cc1,0.822
27,COc1ccc(C#C[C@@H]2C=C[C@@H](OC(C)=O)[C@@H](COC(C)=O)O2)cc1,1.04

row,SMILES,growth
1,FC(F)(F)c1cc(CCCc2ccccc2)nc(CCCc2ccccc2)c1,1.05
2,C=CCN1C(=O)C2=C(C(C(C)C)=NCCN2C)C1c1ccc(Br)cc1 (stereo not given),1.01
3,Cc1ccc(C2NC(=O)c3c2c(CC(C)C)nn3-c2cc(C)cc(C)c2)cc1 (stereo not given),0.956
4,C#CCCCCCCNC(=O)CC1(CNC(=O)c2cccc(/C=N/NS(=O)(=O)c3ccc(C)cc3)c2)CCCCC1,0.959
5,COC(=O)[C@]1([C@H]2OC(=O)C=C2C)CC(=O)c2c(O)cccc2O1,1.26
6,CC(=O)C1=C2C=CCCN2C(=O)NC1c1cc(F)cc(C(F)(F)F)c1 (stereo not given),1.01
7,O=C1C2=C(C(c3ccccc3)=NCCN2)C(c2ccc(Br)cc2)N1Cc1ccccc1 (stereo not given),0.985
8,COC(=O)c1cc2c(c3c4ccccc4n(S(=O)(=O)c4ccc(OC)cc4)c13)C(=O)N(Cc1cccc(F)c1)C2,1.04
9,CC1CC(=O)c2c(O)cccc2O1 (stereo not given),0.963
10,COC(=O)C1=C(C)N(Cc2ccc(C(F)(F)F)cc2)C(NCc2ccc(C(F)(F)F)cc2)=NC1c1cccc(Cl)c1 (stereo not given),1.04
11,CC(=O)OC[C@H]1O[C@H](C#Cc2ccsc2)C=C[C@@H]1OC(C)=O,1.1
12,C=CC[C@]12C[C@@]3(O[C@H](C(C)C)N=C3C[C@H](c3ccc(OC)cc3)[C@H]1C)N(CC)C2=O,0.954
13,COc1ccc(N2C(=O)c3[nH]nc(CC(C)C)c3C2c2ccc(F)cc2F)cc1 (stereo not given),0.923
14,C=CCC1=CC2(OCCCO2)C(CO)=C(Br)C1=O,0.961
15,CC(CCCCn1c(=O)c2c(ncn2C)n(C)c1=O)OS(=O)(=O)NC(C)(C)C (stereo not given),0.97
16,O=C1C=CC(=O)N1c1ccccc1,0.896
17,CO[C@@H]1[C@H](O)CC[C@]2(O)CN(CCc3cccs3)[C@](C)([C@H](O)CC=C(C)C)[C@@H]12,0.935
18,CC(C)(C)c1ccc(NS(=O)(=O)N2CCOCC2)cc1,0.982
19,CC(C)=CCc1cc(O)cc2oc3ccccc3c(=O)c12,0.998
20,C=CCN1C(=O)C2=C(C(CC(C)C)=NCCN2C)C1c1ccc2c(c1)OCO2 (stereo not given),1.02
21,COC(=O)C1=C(C)N(Cc2ccccc2)C(=S)NC1c1ccccc1Br (stereo not given),1.1
22,COc1ccc(N2C(=O)c3[nH]nc(CC(C)C)c3C2c2cccs2)cc1 (stereo not given),1.08
23,Cc1nn(Cc2ccccc2)c2c1C(c1ccc(Br)cc1)NC2=O (stereo not given),1
24,C=CCC1=C(OC)C(CC=C)(Cc2ccccc2)C(=O)C(C(=O)c2ccccc2)=C1O (stereo not given),0.967
25,CO[C@@H]1CCN(C(=O)c2c(O)cc(O)cc2NC2Cc3ccccc3C2)C1,1.03
26,CC(C)(C)c1ccc(C#C[C@@H]2C=C[C@@H](O)[C@@H](COC(=O)NCc3ccccc3)O2)cc1,0.935
